Assay results reported in PubChem BioAssay (NCI).
“And” between values parts separate entries of the source, which are not always exact repeats. Equal entries are not always repeated.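 Growth conditions: 96-well plates. Treatment: test compound, 48 hours, 5 concentrations. Analysis: linear interpolation between bracketing concentrations; unreached endpoints set to highest concentration. Here, GI50 denotes the concentration required for 50% inhibition of growth. TGI: concentration producing complete growth inhibition.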 Bridge positions count the residues as written; N and C are the ends. Peptide text beside a SMILES is read from it.

system: NCI-H322M lung; test: NCI tumour cell line growth inhibition, 48 h

SMILES | TGI | GI50
O=S1(=O)N=C(SCc2c[nH]c3ccccc23)N(c2ccccc2)c2ccncc21 | > 100 µM | –
O=[N+]([O-])/C(Cl)=C(\NCCO)C(Cl)=C(Cl)Cl | > 100 µM | –
O=C(NNC(=O)c1ccncc1)C(=O)Nc1cc(Cl)c(Cl)cc1Cl | > 100 µM | –
COC(=O)c1c(CC(=O)OC(C)C)cc2n(c1=O)Cc1c-2nc2ccccc2c1OC | > 100 µM | –
O=C(Nc1ccccc1)N1C(c2ccccc2)=N[C@@H](c2ccccc2)[C@@H]1c1ccccc1 | 70.8 µM | –
Cc1cc2ccccc2oc(=O)/c1=N\Nc1ccccc1 | > 100 µM | –
CCN(CC)c1ccc(/C=N/N=C(N)N)cc1 | 95.7 µM | 13.7 µM
CC(=O)c1nc(-c2ccc(C[C@@H](CNC(=O)CN(C)C)NC(=O)c3ccc(OC(C)C)c(Cl)c3)cc2)cn1C | 19 µM | 0.121 µM
Cc1cccc(NC(=S)Nc2cccc(Cl)c2)n1 | > 100 µM | –
CNC(=O)NCCCCC(NC(C)=O)C(=O)NCc1ccccc1 (centres undefined) | > 100 µM | –
CCOC(=O)c1cnc2n(c1=O)[C@H]1CCCC[C@@H]1N2 | > 100 µM | –
C=C(CN1CCc2ccccc2C1)c1ccc(CCCC(=O)Nc2ccccc2N)cc1 | > 100 µM | 22.2 µM
CN(C)Cc1cc(/C=C/C(=O)c2ccc(Br)cc2)cc(CN(C)C)c1O | 76 µM | –
Clc1cc(Cl)nc(Nc2ccc3c(c2)CCC3)n1 | 68 µM | –
O=S1(=O)CCC2=CC(C(F)(F)F)=CC(C(F)(F)F)=CN21 | 6.83 µM | –
Cc1ccc(N=Nc2c(O)ccc3ccccc23)c(C)c1 | > 100 µM | –
COc1ccc(OCC(=O)O)c2c1CCC(C)C2=O (centres undefined) | > 100 µM | –
O=C(NNC(=O)c1ccc(Cl)cc1NC(=O)C12CC3CC(CC(C3)C1)C2)c1ccc(Cl)cc1 | 67.9 µM | –
CCNc1ccc2c(c1)C(=O)N(OS(C)(=O)=O)C2=O | > 100 µM | –
Cc1oc(N)c(S(=O)(=O)/C(C#N)=C/c2ccccc2[N+](=O)[O-])c1C | > 100 µM | –
C=CCCCN(C(=O)c1ccccc1)c1ccc(C(=O)OC)o1 | > 100 µM | –
C[C@H](CCc1nc(C#N)c(N)o1)[C@H]1CC[C@H]2[C@@H]3CCC4C[C@@H](O)CC[C@]4(C)[C@H]3C[C@@H](O)[C@]12C (some centres undefined) | 31.7 µM | –
NCCCNCCSP(=O)(O)O | > 750 µM | –
O=C1OC2(CCCCC2)C(Oc2ccc(Cl)cc2)=C1F | > 100 µM | –
CSCc1ncc(-c2ccc(C(F)(F)F)cc2)c(NC2CCCCCC2)n1 | > 10 µM | > 10 µM
C/C(=N\Nc1nc2cc(F)ccc2s1)c1ccccn1 | > 42.6 µM | –

SMILES | TGI | GI50
O=C(O)C1CC2C=CCC(C2)C1 (centres undefined) | > 100 µM | –
CC(NC1CCCC[C@@H]1O)c1ccccc1 (some centres undefined) | > 100 µM | –
COc1ccc(-c2c(/C=N/OCC(=O)O)c3sc4ccccc4n3c2/C=N/OCC(=O)O)cc1 | > 50 µM | –
Cc1nc(Nc2ccc(Cl)cc2)sc1C(=O)Nc1cccc2c(=O)[nH][nH]c(=O)c12 | > 100 µM | –
N.N.N.N.O=S([O-])[O-].[Co+3].[N-]=[N+]=[N-] | > 100 µM | > 100 µM
CN(CCOc1ccc(NS(C)(=O)=O)cc1)CCc1ccc(NS(C)(=O)=O)cc1 | > 100 µM | > 100 µM
C=C1C(=O)OC2C[C@@]3(C)CCCC(=C)C3CC12 (some centres undefined) | 28.5 µM | –
COC(=O)CCC(NC(=S)N/N=C(\C)c1cccs1)C(=O)OC (centres undefined) | > 100 µM | –
N/C(=N\N=C/c1c(O)cc(O)cc1O)NO | > 100 µM | –
S=C(Nc1ccc(-c2nc3ccccc3s2)cc1)Nc1ccc(-c2nc3ccccc3s2)cc1 | > 100 µM | 21.9 µM
COc1ccc(N=c2nc3sc4cc(Cl)ccc4n3c(N)c2C#N)cc1 | > 100 µM | 4.39 µM
COc1cccc(C2C(C#N)=C(N)Oc3cc(OCCCCCC[P+](c4ccccc4)(c4ccccc4)c4ccccc4)ccc32)c1 (centres undefined) | 2.97 µM | 1.55 µM
O=c1cc(-c2ccccc2)oc2cc(OCCCCCCCCCCOc3ccc4c(=O)cc(-c5ccccc5)oc4c3)ccc12 | > 100 µM | –
CC(C)=CC(=O)OC1C2C(C)=CC(=O)C(O)C2(C)C2C3(O)OCC24C(CC(=O)OC14)C(C)C3O (centres undefined) | 0.623 µM and 3.13 µM and 0.776 µM | 0.13 µM and 0.0969 µM
CC(=O)c1c(-c2ccco2)c(C#N)c(=S)n(C2OC(CO)C(O)C(O)C2O)c1C (centres undefined) | > 100 µM | –
COc1cccc(C=NC23CC4CC(CC(C4)C2)C3)c1 | > 100 µM | –
CC(Cl)(CCC(Cl)C(C)(C)Cl)C(=O)CBr (centres undefined) | 58.6 µM | –
Cc1ccc(N2Cc3c(ccc4ccccc34)OP2(=S)N2CCCC2)cc1 (centres undefined) | > 100 µM | –
O=Cc1c2c(cc3c1CC1(C3)Cc3cc4c(c(C=O)c3C1)CCC4)CCC2 | > 100 µM | –
Cc1c(C(=O)O)sc2nc[nH]c(=O)c12 | > 100 µM | –
Cc1c2oc(=O)c(C#N)cc2c2ccccn12 | > 100 µM | –
Cc1cc(O)c2c(c1)OC1(C)CCC3C(C)(C)CCCC34COC2C14 (centres undefined) | 18.4 µM | –
CSCSCC(CO)NC(=O)/C=C\c1c(C)[nH]c(=O)[nH]c1=O (centres undefined) | 105 µM | –
Cn1cc(-c2csc(-c3ccc(Cl)cc3)n2)c2cccnc21 | 37.7 µM | 13.2 µM
C[C@]12CCC3c4ccc(O)cc4CCC3C1CC[C@@H]2NC(=O)/C=C/c1ccc(O)c(O)c1 (some centres undefined) | 54.1 µM | 18.9 µM
COC(=O)C1CCC(=O)NCCCCC(NC(=O)C(N)CC(=O)O)C(=O)N1 (stereo not drawn) (H-Asp-Lys-Glu-OMe; lactam 2-3; configuration not given here) | > 100 µM | –
